Out of some 310,000 compounds screened, about 14,000 (4.5%) showed an effect of 50% or more. The effect is printed as a negative number. The list shows a part of the results.
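Also: peak tail current of the secondary pulse compared with the same well before compound.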

The target of this assay is human ether-à-go-go-related gene (hERG) potassium channel (human, UniProt Q12809). Briefly: primary screen, population patch clamp on CHO cells stably expressing hERG.
Sequence of human ether-à-go-go-related gene (hERG) potassium channel (Q12809 whole entry, looked up): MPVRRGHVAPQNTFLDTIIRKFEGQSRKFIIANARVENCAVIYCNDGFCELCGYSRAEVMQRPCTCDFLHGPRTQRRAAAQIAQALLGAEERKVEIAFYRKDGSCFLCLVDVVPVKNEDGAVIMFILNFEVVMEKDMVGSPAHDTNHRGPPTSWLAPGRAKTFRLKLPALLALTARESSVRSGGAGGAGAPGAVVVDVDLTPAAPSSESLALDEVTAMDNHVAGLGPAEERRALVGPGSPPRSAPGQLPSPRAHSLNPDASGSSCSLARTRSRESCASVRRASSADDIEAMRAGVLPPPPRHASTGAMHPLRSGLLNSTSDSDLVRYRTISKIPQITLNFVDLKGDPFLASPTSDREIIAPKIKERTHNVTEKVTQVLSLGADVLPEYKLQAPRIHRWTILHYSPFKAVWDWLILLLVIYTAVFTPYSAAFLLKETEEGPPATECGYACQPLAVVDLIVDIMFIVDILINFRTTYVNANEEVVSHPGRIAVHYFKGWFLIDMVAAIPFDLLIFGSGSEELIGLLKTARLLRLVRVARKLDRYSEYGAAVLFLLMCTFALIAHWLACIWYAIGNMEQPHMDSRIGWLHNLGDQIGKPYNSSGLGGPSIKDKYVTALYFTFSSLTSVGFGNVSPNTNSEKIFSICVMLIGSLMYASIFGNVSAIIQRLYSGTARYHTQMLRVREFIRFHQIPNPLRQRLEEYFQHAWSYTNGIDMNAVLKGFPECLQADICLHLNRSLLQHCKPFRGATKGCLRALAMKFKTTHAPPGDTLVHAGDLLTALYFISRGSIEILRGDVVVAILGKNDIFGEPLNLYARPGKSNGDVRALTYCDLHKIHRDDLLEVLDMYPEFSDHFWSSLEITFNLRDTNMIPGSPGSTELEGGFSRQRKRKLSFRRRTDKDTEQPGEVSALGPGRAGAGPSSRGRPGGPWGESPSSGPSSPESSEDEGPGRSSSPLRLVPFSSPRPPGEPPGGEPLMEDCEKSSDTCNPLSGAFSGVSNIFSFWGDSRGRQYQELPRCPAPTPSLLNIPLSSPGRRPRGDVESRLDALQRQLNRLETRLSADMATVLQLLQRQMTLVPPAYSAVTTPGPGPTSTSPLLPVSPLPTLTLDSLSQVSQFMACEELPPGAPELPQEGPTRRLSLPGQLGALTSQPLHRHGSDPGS
Take `O=C(NCc1ccccc1)c1cc(=O)[nH]c2ccccc12`: the “hERG current change (%, negative = inhibition) at 10uM” value was found to be 10.3%. As for `O=C(NCc1cccnc1)Nc1cccc(C(F)(F)F)c1`, the figure is -4.34%; as for `Cc1ccc(C(=O)N/C(=C\c2cccs2)C(=O)NCCCn2ccnc2)cc1`, -70.3%; as for `Cc1ccc(C)c(S(=O)(=O)N2CCCCC2CCNC(=O)C(=O)NCCc2ccco2)c1` (centres unmarked), -29.4%.

For the compound `CC(C)CN1CCC(CN(C)Cc2nc(-c3cnccn3)no2)CC1`, the “hERG current change (%, negative = inhibition) at 10uM” value worked out at 7.87%.

Take `COc1ccccc1N1C(=O)c2cccc3c(Cl)ccc(c23)C1=O`: the “hERG current change (%, negative = inhibition) at 10uM” value was 13.6%. For `CC1CC(C)CN(C(=O)C2CCN(S(=O)(=O)N3CCC4(CC3)OCCO4)CC2)C1` (centres unmarked), the “hERG current change (%, negative = inhibition) at 10uM” value is on record as 21.8%. As for `O=C(Nc1ncc(Cl)cc1Cl)c1c(F)cccc1Cl`, the figure is 16%; as for `CC(=O)Nc1ccc2c(c1)OCCOCCOc1cc(NC(C)=O)ccc1OCCOCCOCCO2`, -2.81%. The figure for `CN1CCN(c2ccc(S(=O)(=O)N3CCCCC3)cc2NC(=O)CSCc2ccccc2)CC1` is -20.5%; for `O=C1C(Cc2ccc3[nH]ccc3c2)NC(=S)N1c1ccccc1` (centres unmarked) it is 7.61%; for `C[C@]12CC(O)C3C(CCC4=CC(=O)CC[C@@]43C)C1CCC2c1csc(-c2ccccc2)n1` (some centres unmarked) it is 22.5%. As for `CC(Oc1ccc(F)cc1)C(=O)N(CCC1=CCCCC1)c1c(N)n(Cc2ccccc2)c(=O)[nH]c1=O` (centres unmarked), the figure is -52%. For `COc1cccc(NC(=O)CSC2=NN3CCCC(=O)N=C3S2)c1`, the “hERG current change (%, negative = inhibition) at 10uM” value worked out at 11%. The figure for `O=C(Oc1ccc(/C=N/Nc2ccccc2)cc1)c1ccccc1` is 15.4%; for `COc1ccc(OC)c(-c2cc(C(=O)Nc3c(C)nn(Cc4ccc(Cl)cc4)c3C)no2)c1` it is 16.8%.

`CCC(C)(C(=O)NC1CCCCC1)N(C(=O)CC1NC(=O)NC1=O)c1c(C)n(C)n(-c2ccccc2)c1=O` (centres unmarked): the “hERG current change (%, negative = inhibition) at 10uM” value turned out to be 12.8%. As for `CC(=O)C1=C(O)C(=O)N(c2ccc(O)cc2)C1c1ccc(C)cc1` (centres unmarked), the “hERG current change (%, negative = inhibition) at 10uM” value was found to be 16.9%. The figure for `O=S(=O)(c1ccc(Cl)cc1)N1CCCC1c1cccnc1` (centres unmarked) is 8.49%; for `CCN(CC(=O)Nc1ccc(Br)cc1)C(=O)c1nc2nc(C)cc(C)n2n1` it is -34.6%.

On to `N#CC1C(C#N)N2CCCN2C1c1ccc(Br)cc1` (centres unmarked), for which the “hERG current change (%, negative = inhibition) at 10uM” value was 17.1%. The figure for `CC(=O)c1cccc(NC(=O)c2ccc(OC3CSC3)cc2)c1` is 22.7%.

In the case of `CCN(CC)S(=O)(=O)c1ccc(N/N=C/c2ccccc2OCC(=O)O)c([N+](=O)[O-])c1`, the “hERG current change (%, negative = inhibition) at 10uM” value amounted to 13.5%. As for `CCc1nnc(NC(=O)CCC(=O)NC2CCCCCC2)s1`, the figure is 3.71%; as for `CSc1ccccc1NC(=O)CN(C)CC(=O)NCc1ccccc1`, 9.48%; as for `CC1CCN(C(=O)COC(=O)c2cc(=O)[nH]c3ccccc23)CC1`, 2.57%.

Turning to `Clc1ccccc1C1=CC(c2ccco2)n2ncnc2N1` (centres unmarked), the “hERG current change (%, negative = inhibition) at 10uM” value is reported as -11.3%. For `CCOc1ccc(/C=C/C(=O)N(C)CC(=O)Nc2cccc(F)c2)cc1OCC`, the “hERG current change (%, negative = inhibition) at 10uM” value came to 10.6%. As for `O=C(CSCc1ccc(Br)cc1)Nc1ccccc1C(=O)N1CCOCC1`, the figure is -3%; as for `CCOc1ccccc1C(=O)N(C)CC(=O)Nc1ccc(OC)cc1`, 12%; as for `O=C(c1ccc2c(=O)n(C3CCCC3)c(=S)[nH]c2c1)N1CCc2ccccc21`, 8.36%. The figure for `Cc1ccc(N(CCC#N)C(=O)CSc2ccc3c(c2)OCCO3)cc1` is -37.8%; for `COc1ccc(/C=C/C(=O)NCc2nc3ccccc3[nH]2)cc1OC` it is 7.85%; for `COCCN1CCN(C(=O)c2ccc3nc(Cc4ccccc4F)oc3c2)CC1` it is -15.9%. Regarding `Cc1occc1-c1nnc(SCC(=O)N2CCOCC2)n1CCc1ccccc1`, the “hERG current change (%, negative = inhibition) at 10uM” value is on record as -18%. The figure for `COCCSc1ccccc1C(=O)NCc1ccco1` is 4.38%; for `Cc1cc(C)n2cc(COc3ccc4ccccc4c3)nc2n1` it is -37.6%; for `O=C(CN(Cc1ccccc1F)S(=O)(=O)c1ccc(Cl)cc1)NCCC1=CCCCC1` it is 11.7%. The figure for `COc1ccccc1N1C(=O)CC(Sc2n[nH]c(-c3cccc(C)c3)n2)C1=O` (centres unmarked) is 12.2%; for `Clc1ccccc1CSc1nnc(-c2ccco2)c(-c2ccco2)n1` it is -12.7%; for `COCCCNC(=O)CSc1nc2ccccc2c(=O)n1CCCN1CCCCC1` it is 2.04%. The figure for `CSCC(=O)N1CCCC(CNC(=O)c2ccccc2Cl)C1` (centres unmarked) is 20.4%; for `COc1ccc(CCNC(=O)CN2CCN(Cc3ccc(F)cc3)C2=O)cc1OC` it is 5.01%; for `Cc1ccc(C(=O)CC2(O)C(=O)N(C)c3ccccc32)s1` (centres unmarked) it is -9.08%.

With `O=C(Nc1ccc(C(F)(F)F)cc1)c1ccccc1`, the “hERG current change (%, negative = inhibition) at 10uM” value is 20.4%. The figure for `CCC(C)c1ccc(NC(=S)NC2CCN(Cc3ccccc3)CC2)cc1` (centres unmarked) is -61.8%; for `O=C(O)C1CCCN1C(=O)Nc1ccc(F)cc1` (centres unmarked) it is 1.7%.

For the compound `COc1ccc(CCNC(=O)CSCc2ccc(F)cc2)cc1OC`, the “hERG current change (%, negative = inhibition) at 10uM” value was -8.86%. The figure for `Cc1ccc2nc(-c3ccc(NC(=O)CN4CCN(C(=O)c5ccco5)CC4)cc3)sc2c1` is 9.57%; for `O=C(Nc1cccc(S(=O)(=O)N2CCOCC2)c1)c1ccc(N2CCCC2=O)cc1` it is 8.25%; for `O=C(Nc1ccncc1)c1ccc(Cl)cc1` it is -3.8%.

On to `NC(=O)CCC(NC(=S)Nc1ccccc1)C(=O)O` (centres unmarked), for which the “hERG current change (%, negative = inhibition) at 10uM” value was 15.2%. The figure for `CC(=O)NS(=O)(=O)c1ccc(NC(=O)CSc2ccccc2)cc1` is 2.57%; for `O=C1C(=O)N(Cc2cccnc2)C(c2cccc(Br)c2)/C1=C(/O)c1ccc2c(c1)OCO2` (centres unmarked) it is 5.15%.

With `CCNc1nc2c(c(=O)n(C)c(=O)n2C)n1Cc1ccc(Cl)cc1`, the “hERG current change (%, negative = inhibition) at 10uM” value is on record as -7.07%. On to `Cn1ccnc1Sc1cc(Cl)ccc1[N+](=O)[O-]`, for which the “hERG current change (%, negative = inhibition) at 10uM” value is listed as 14.3%.

(Values after paper PMC4336329 (PLoS ONE, 2015).)
